The labels stand for the following.
B1: LINE1-mini (parent)
chain: GGCAGAGCUCAACACAGCGUGGCAAAGUGGCUGUGGCUAGACUGCC

The source gives no read counts; variants with many changes may rest on few reads.

Here are results for 167 variants from the RNAGym collection of RNA variant scans (doi:10.7554/elife.90254).

In this data set the parent is B1. Put plainly: self-cleavage, relative activity (ratio to wild type); higher = more cleavage; in vitro, sequencing; the parent is a self-cleaving ribozyme.
Turning to G5U A11U A24C G30A, the self-cleavage was found to be 0.02. Consider G5U C8G U9G G33U, for which the self-cleavage turned out to be 0.06. For the variant G5U C31U C45G, the self-cleavage turned out to be 0.06.

In the case of G5U C15U G22C C37U, the self-cleavage was 0. Regarding A6C A14C C37G U43A, the self-cleavage worked out at 0.11. With G5U U20G G29A G40U, the self-cleavage worked out at 0.13. Consider A6C A14G G21C C31U, for which the self-cleavage was 0.03. Turning to A6C A25C A26C, the self-cleavage was determined as 0.05. As for G5U C18G G21U U28C G36U, the figure is 0.05; as for G5U C15G G27C C37G, 0.01; as for G5U C23A U28G A41U, 0. On to G5U C10G A24C C37A, for which the self-cleavage is 0. For G5U C18U G36U G40C, the self-cleavage is 0.02.

Consider G5U C18U G19C G29U, for which the self-cleavage stood at 0.16.

A6C A26G U34C G40C: the self-cleavage turned out to be 0.

With A6C A24U G29C A39G, the self-cleavage amounted to 0.05. A6C A12C U32G: the self-cleavage was 0. As for G5U A16C G21C U38C C42G, the self-cleavage turned out to be 0.02.

G5U A16G G19C G33C U34C: the self-cleavage was found to be 0.01. G5U C8A A14U G22C G27U: the self-cleavage came to 0.19. Consider G5U C13G C37U C45U, for which the self-cleavage was determined as 0.12. On to G5U C10A U28G C46U, for which the self-cleavage stood at 0.01.

Consider G5U G7A G22U, for which the self-cleavage turned out to be 0.27. As for G5U C13A C31U G40A, the figure is 0.11. As for A6C A11U A12U C31A G44C, the self-cleavage stood at 0.

Consider G5C U20G U43A C46A, for which the self-cleavage was found to be 0.11. As for G5U U9G C18A G29U U38G, the self-cleavage was 0.25. With G5U U9G U38C, the self-cleavage was 0.12. For the variant G5U A25U G33A C42A, the self-cleavage stood at 0.01.

Turning to G5U C8A C42G, the self-cleavage came out at 0.05. As for G5U G33C G35C, the self-cleavage was 0.04. As for G5U G33C G36A U38C, the self-cleavage came to 0.

With G5U G27U A39U, the self-cleavage was 0.05. As to A6C A16U G33C G36U, the self-cleavage came out at 0.03. As for G5U G27U U28C, the figure is 0.02. For G5U C10A A16G U32G C37U, the self-cleavage turned out to be 0. For the variant G5U U9G C10A G17A G30A U32A G33C A41C, the self-cleavage amounted to 0.01.

For G5U A14C C45G, the self-cleavage came out at 0.03. As for G5U C37U U38A G44A, the figure is 0.06; as for G5U U34G G40U, 0; as for A6C A12C G22C C37G C46A, 0. On to A6C C8G A12U A39G, for which the self-cleavage stood at 0.07.

As for G5U C8A C10A G17U, the self-cleavage was determined as 0.09.

For G5U C13U G30A C37A G44C, the self-cleavage was found to be 0.12. The same measure for G5U C10G U28G G30C C42G: 0.01; for G5U G21U G22A C23A A24U U32C: 0.05; for G5U C15A U20C G44C: 0.02. Take G5C U28G C37A: the self-cleavage came out at 0.21. The same measure for A6C C8A U28G A39G: 0.05. For the variant G5U A6G C8G G27U, the self-cleavage was 0.03. As for G5U G29U A39C, the self-cleavage is 0.04. As to G5U G17U C18U G33U, the self-cleavage came to 0.03. Regarding G5U G17U A26U, the self-cleavage stood at 0.01. As for G5U A24C A41C C45A, the self-cleavage stood at 0.03. Regarding G5U A12C A26C C42A C45A, the self-cleavage came out at 0.08.

As to G5U G7C C10U C31G U32A C42A, the self-cleavage worked out at 0.01. On to G5U C8U A16G, for which the self-cleavage stood at 0.32. As for A6C C8G U9A A14G G44U, the figure is 0.03; as for G5U A16C C37A, 0.04. As for G5U C13U G21U G30A, the self-cleavage worked out at 0.08. For the variant A6C A14G G36U A41U, the self-cleavage is 0.04. Consider G5U A6G G22U A25G G36U G44U, for which the self-cleavage was 0.02. As for G5U U9A C42A, the self-cleavage is 0.04.

Take A6C C8U A11C G22C: the self-cleavage turned out to be 0.03. The same measure for G5U A6C G33C: 0.07. As to G5U G19A G22A A41G U43G, the self-cleavage came out at 0. For G5U C8G G22U, the self-cleavage was found to be 0.34. G5C U9G U20G A24C C42G: the self-cleavage was 0.04. Regarding G5U G27U G36U, the self-cleavage was found to be 0.05. The same measure for G5U A11U C31A G33U U38C C46A: 0; for G5U C15A G40A: 0.02.

For the variant G5U A26U U34C, the self-cleavage was 0.07. Turning to G5U A14U C31A C45G, the self-cleavage came to 0.04. As for G5U A25U U28A U34C G36C, the figure is 0.02; as for G5U U34A U38G, 0.01.

Turning to A6C A16G U20A G27U G29A U43A, the self-cleavage stood at 0.08. Take G5U C8A C10G G19U G27A: the self-cleavage was determined as 0.02. Regarding G5U A11G A12G, the self-cleavage was 0.02. As for G5U A6G G27C U34G G35A, the self-cleavage came out at 0.03. For G5U C23A U28C G35U U38A G40U, the self-cleavage is 0.01. As for G5U C18A A24C, the self-cleavage worked out at 0.01. On to G5U C8A G29U, for which the self-cleavage was found to be 0.12. The same measure for G5U A6U U9G G30U C45U: 0.12. For the variant G5U U28G A39C C46A, the self-cleavage amounted to 0.8. Regarding G5U A16C G19U A25U, the self-cleavage amounted to 0.03.

As for G5U U34C G36A, the self-cleavage was 0.03.

Turning to G5U A14C A39U, the self-cleavage was 0.06. G5U A14G C15G C23U: the self-cleavage was found to be 0.11. The same measure for A6C A25G G27U: 0.18; for A6C A25C G35C G40A: 0.09. The same measure for G5U U9G C18G G29A G40U: 0.02; for G5U C10A G33U G35U U38G: 0.04.

In the case of G5U G29C G30C G33U, the self-cleavage stood at 0.02. Consider G5U U9G A11C A25C, for which the self-cleavage came out at 0.

Turning to G5U G7U C15A, the self-cleavage turned out to be 0.1.

As to G5U A16U G27U, the self-cleavage was 0.18. Consider G5U G17U C42U, for which the self-cleavage was found to be 0.02. Turning to A6C A11G C31U G40U, the self-cleavage stood at 0.05.

As to G5U A26G G40U G44C, the self-cleavage worked out at 0.02. As for G5U G7A C10G A14G A25U C42U, the figure is 0.03. With G5U G27C G30U C46U, the self-cleavage turned out to be 0.03. On to G5U U9G C18G G35A C42A, for which the self-cleavage amounted to 0.06. The same measure for A6C A14G C37G: 0.03; for G5U U20G G22U C46G: 0.01.

Regarding G5U C10U G21U G27A A39G, the self-cleavage came to 0.02. The same measure for G5U C10A G17A: 0.02. In the case of G5U C10G U32G G35C, the self-cleavage is 0. With G5U G21A G35U C37A, the self-cleavage turned out to be 0.04. Regarding A6C C8A G17C G21U, the self-cleavage worked out at 0.02. In the case of G5U U38A C46A, the self-cleavage stood at 0.19. For the variant G5C U32G C45G, the self-cleavage came out at 0.05. As to G5U C8G U34A, the self-cleavage is 0.05. Consider G5U C18A G29U, for which the self-cleavage amounted to 0.09. Take G5U A26C G40U: the self-cleavage came to 0.06. Consider G5U G40U C42G, for which the self-cleavage turned out to be 0.06. As to G5U C15G U38A, the self-cleavage was 0.04. On to G5U G21A A39G, for which the self-cleavage was 0.12. The same measure for G5C U9G C13G U28C G36U: 0.02; for G5U G19U C31A G33U: 0.16. Consider G5U U20A U43G, for which the self-cleavage came to 0.02. The same measure for G5U A14C U38C U43A: 0.04. Take G5U C10A G27U A41C: the self-cleavage worked out at 0.03. Regarding G5U A11U G44C, the self-cleavage came to 0.01. As for G5U C10A C18A U20A U28C C42A, the self-cleavage stood at 0.01. In the case of G5U G7U A11G C45G, the self-cleavage was 0.03. On to G5U C8A A16C C18U C42U C45G, for which the self-cleavage came to 0.01. Regarding G5U A41G U43C, the self-cleavage was 0.03.

A6C A24U U28C U34C G35C: the self-cleavage was found to be 0.01. Consider A6C A11U G17A C18U G22U U28C G29U, for which the self-cleavage came to 0.02. For the variant A6C A14U G17C G27C U28G G35C C45G, the self-cleavage is 0.12. For G5U C23U G29A C31U G35A, the self-cleavage came out at 0.04. Consider G5U G7C U9G C10U A14C A25G, for which the self-cleavage was 0.03.

With A6C A16C C23U, the self-cleavage amounted to 0.04. Turning to A6C A11C A16U G36A C37G, the self-cleavage is 0. As to G5U A6C G7C U20A G29A U38A A39U G44A, the self-cleavage was determined as 0.11. The same measure for G5U G7U G21A G29A G30U: 0.98; for A6C A24C A25G G33A: 0.07; for A6C C8A U20C U38G: 0.08.

As to G5U U9G G27A, the self-cleavage is 0.08. As to A6C A12U U34G G36U G40A, the self-cleavage amounted to 0.01.

G5U C13U G29C: the self-cleavage is 0.02.

For the variant G5U U38A A39G, the self-cleavage is 0.03.

For G5U C15A A16U C37A, the self-cleavage worked out at 0.11.

Regarding G5U A6C U28C G33U U34G, the self-cleavage worked out at 0.05. As for G5U U38A G40U, the figure is 0.08; as for G5U U43C C46A, 0.03.

As for G5U U9C G22U G27A, the self-cleavage came to 0.01. Regarding G5U C8U C13A G19A G30U G35U A41U, the self-cleavage stood at 0.13. Consider G5U A24U C46U, for which the self-cleavage was 0.06. On to G5U G7C G27U A39U, for which the self-cleavage worked out at 0.08. For the variant A6C A14U G35U, the self-cleavage stood at 0.23. In the case of A6C A12C G29U G33A G40U, the self-cleavage was 0.01.

Take G5U G7U U9G C42U: the self-cleavage was determined as 0.03. With G5U A11G G33C, the self-cleavage worked out at 0.02. Take G5U A24C G44C: the self-cleavage was found to be 0.08.

With G5U G29A G36U, the self-cleavage was 0.04.

Turning to G5U U9C C46A, the self-cleavage was 0.02. On to A6C A24G G30C C31G C42A, for which the self-cleavage is 0.04. G5U U9C G27U: the self-cleavage worked out at 0.04. For the variant G5U U9C G27C, the self-cleavage is 0.03. Take G5U G7A A14G G35C: the self-cleavage turned out to be 0.38. As for G5U A11C G17C A26U U38C U43A, the figure is 0.04.

Turning to G5U C18U A24G G30A G33C C46G, the self-cleavage is 0.

Turning to G5U A12C C13U A14U, the self-cleavage was found to be 0.03. Consider G5U G21U G44C, for which the self-cleavage stood at 0.09. Regarding G5U A24C U32G, the self-cleavage turned out to be 0.03. Turning to G5U A11G C45A, the self-cleavage was 0.04.
